# The source gives no read counts; variants with many changes may rest on few reads.
# B1: OR4K15 (parent)
# chain: GUUAACGGUCAUAGGCCAUGGAAACUAGGAGCACCAUUUCGCUGCCAGUGAAGAAAUGAACAAAGAAAAUCUGGGCCAGGCAGGCAUCAAAAGAAAUAGUCUUGCGCUCAACCAGAAAGUCUGUAAUCAUUUUAAGGGUA
# Variants of: B1
# Test: self-cleavage, relative activity (ratio to wild type); higher = more cleavage; in vitro, sequencing; the parent is a self-cleaving ribozyme
row,Variant,self-cleavage
1,U9C U38A A89G A129G,1.2
2,G29U A82U A111G,0.02
3,A90G U100A A117G,0.5
4,U2C A66G U103G A116G,0.05
5,A36U A56G A82G A111G,0.01
6,A47G A59G A60G,0.79
7,U2C G75C U97C,0.08
8,U38C U72A U108A U122C,0.01
9,U12C A24G A52G A55G A59U A91G A92G U122C,0.75
10,C6U A68G U97C A114C,0.06
11,U9C A64G U103C A117G,1.69
12,U57C A91G A111U,0.02
13,A13U A59U A82G,0.71
14,A30G U38C A62G U127C,0.84
15,A5G A56G A67G A94G,0.62
16,U9A A23G A51G A78G U122C,0.16
17,A11C A78G U131C,0.13
18,U26C A95G A96G A117G,2.67
19,U2C A24C A96U,1.05
20,U38A A51G A78U A92G U127C,0.09
21,A36G U39C A56C U72A,0.2
22,G31A A54G A92G U122C,2.24
23,U49A A66G U127C,0.63
24,U12A U39C U43C A54U A92G,1.86

row,Variant,self-cleavage
1,A4G A23G A51U,2.29
2,U43G U120C U131C,1.56
3,U3C U124G A134G,0.95
4,U2C A90G A111G U120C,0.02
5,A64G A98U A117G,2.99
6,A62G A94G A126C,0.74
7,A60G U103C A111G A140G,0
8,A59G U87C A95G,0.82
9,A30G U37A U130A,1.47
10,A22G C40U U97C,0.8
11,A36C A94U U100A A129C,0.51
12,A86U U108A U120C,0
13,A62U U70C A111G A118U U130C,0
14,U19C A33G A63G A91G,0.27
15,A59G U102C U133C,1.48
16,A33U A60G U103C,0.24
17,A52G A55G U120C,1.02
18,U38C U103C U124A,0.37
19,A89G A118G U120C,0.41
20,A66U U70C U102C,0.84
21,A54G A111U U139C,0.13
22,U37C A96G U122C U133A,1.46
23,U70G A126G C128A,0.4
24,U12C G29A U130C,1.18

row,Variant,self-cleavage
1,A24U A54G A55G A78G U124C A125G,0.2
2,A4G A23G C34A A91G U97C U127C,0.54
3,G7A A33U A82U U100C A117G,0.14
4,A64G U72C C81A A86G U87C,0.09
5,U19A A68U U127G,2.23
6,A36G U43C A64G U139C,2.21
7,A22G U100C A111G U120C U127A,0
8,U19C A47U A51G A118C,0.7
9,A5G A33G A63G A95G,0.83
10,A55C A95G U102C U103C U127C,0.1
11,A56G A69G A92G,1.6
12,A18G U38C A59G U122C,0.99
13,U87A A96U U122A,1.74
14,A86G A116G U132C,0.72
15,A69C A89G A129G,0.43
16,U37C A96G A116G,1.33
17,A64G A92G U130C,0.34
18,G20A U39A A110G A116G,0.08
19,A11G A51G U108C,0.08
20,A47G A68G U132C U133C,1.11
21,G29A U72A A89G U132C,0.29
22,A18G G74A U132C,0.23
23,A64G U102C C109U U120A,0.68
24,A23G A54G G74A G93A A118G,0.17

row,Variant,self-cleavage
1,C32G A86G U127C,0.9
2,A36G A52G U122C,1
3,A13G A92G A117G,1.15
4,A22G A24G U100C,1.02
5,A18G U37G G44A U49C U100C,0.78
6,U3C A47G A54G A111G A117G,0.03
7,A55G A63G A68G A92G U102C,1.99
8,A18G A56G U100C U130C,1.03
9,A13U U70A A110G U122C U130C U139A,0.06
10,C35A A64G A89G U133C,0.4
11,A4G A5G U38C A62G A69G,1.05
12,U2C U26C A51U U133A,0.81
13,G7A A89G A111G,0
14,A4G A60G U70C,0.24
15,U43C U108C A116G,0.01
16,U57G G75C A126G,0.16
17,U9A G48A A52G A56G U100C,1.94
18,A67G A90G A110G,0.04
19,G7A A11G A86G U87C A89G U102A U103A,0.05
20,U2C G28A A33G A86G A118G A125G,0.04
21,A11C U37C A116G,0.84
22,G7U A18G A36G,0.67
23,A33G A62G U87C U130C A134G,0.34
24,A47U A126U U139C,0.93

row,Variant,self-cleavage
1,A27G U49C A63G U122A U133C,1.05
2,A55G A62U U108C G138U,0.01
3,U49A A54U A78U,0.3
4,A54G A55G A78G,0.17
5,A23U A55G A92G,0.58
6,A11U A60G A92G U103C C112U,0.01
7,C17U A52G A54G,0.97
8,A23G G28A U43C A94G U122C,0.43
9,U2C U87A A134G,0.45
10,C35G A60G A64G A69G,0.92
11,A27G U70C A82G A96G,0.14
12,A55G A59G A82G,0.2
13,U19G A52G U57C A117G,1.47
14,U37C G75C U122C,0.11
15,G21A A86U U100C,2.86
16,U49A A59U A66G C88U A117G,1.63
17,A5G A94G A95U A111G,0.06
18,A23G A27G U37C A55G A114U A116G,0
19,U38C U103C A111G,0.01
20,U49C A68G U103C U124C,0.57
21,G15A A22U A67G A98U A126G,1.37
22,G29A U72A U127C,0.15
23,A30U A90G A92G U120C A126G,0.25
24,A30G A63G A110U,1.41

row,Variant,self-cleavage
1,A11G U131C A140C,0.97
2,A23G A36G A52G U57C A67G U103A,1
3,A27G A62G A68G A92G,0.67
4,A5G A22G A86G,0.79
5,U12C U19C A78U,0.14
6,A11G A98U A111U,0.18
7,A23G U70C G106A,0.08
8,A52G U57C A62G A116U,0.2
9,G7A A11U G28A U122C,1.27
10,A67U U70C U97C,0.45
11,U2C A5G A13C C40U A68G A86G A94G,1.23
12,A54G A56G G79A A111G A126G,0
13,A24G U38A U108C,0.08
14,A63G U102C G123A,1.39
15,U2C C25U U120C A125C,0.35
16,A63G A64G G73A A117G,0.22
17,A56G A64G A69G A78G A95G U127A,0.4
18,A60U G65A A114G U122C,0.11
19,A30G A33C U49A A68G U124C,0.72
20,U2C A36G A64G A92G,1.59
21,A56G A96G U120C,0.64
22,A11G A30G A117G,0.6
23,A18C A67G A86G A117U G137A,1
24,U39C A89G A92G,1.83

row,Variant,self-cleavage
1,A18G A51U A55G A78U,0.24
2,U19C A59G A110G,0.21
3,U38C A51G A62U A117G,1.81
4,A11G A24G A55G U122A,0.9
5,A24G A62G A140G,1.13
6,A33U G53A A62G A92G,1.13
7,A22G A27U G84A U120C A135G,1.38
8,A23G A92G U103C A111G A114G,0.04
9,A67G A129C U132C,1.46
10,U43C U108C A125G,0
11,A63G G73U A110G,0.06
12,U70C A82G A96G,0.36
13,U12C A23G G29A A55G C76U,0.04
14,G1C A66U U132A,0.68
15,U43A A55G A78U U87A A111G,0.01
16,A22G U57C A68G A135G,0.9
17,A11G A24G U100C A118G U130C,1.3
18,U3C A54G A60G A114G,0.35
19,A18U A24U A60G U102C A117G U139C,2.05
20,U19C A95G A116G,0.45
21,U57C A78G A125G,0.03
22,A22G U103C U108A A140G,0
23,A22G A51G A52G U72A U87G U139C,0.35

# — the RNAGym collection of RNA variant scans (doi:10.7554/elife.90254)
